Our source for the z-score values is PubChem BioAssay AID488969 (Vanderbilt High Throughput Screening Facility, 2010).

In all, about 110,000 compounds were measured (“z-score”: median about -0.1, highest 2% from about 2 on). The list shows a part of the results. Active and inactive are the calls of the source.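 The calls were made as follows: active = z-score in the third read window above 3 or below -3; inactive = the rest.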 Starred links: 1 amine or outer side, 2 acyl side, 3 side chain; linkers in the order of their positions; H or OH if unused. Residues, ends and D or L forms follow the SMILES beside them. *: point of attachment. Cbz = O=C(OCc1ccccc1)*; CO = O=C([*:1])[*:2]; NHPh = c1ccc(N*)cc1

The target in this assay is Metabotropic glutamate receptor 8 (Rattus norvegicus) (UniProt P70579). In words: rat mGluR8 modulators via GIRK flux, primary screen, cell-based, thallium flux, HTS (AID 488969). As to conditions: HEK293 rat mGluR8, GIRK (G protein-gated inwardly rectifying potassium channel) thallium flux, FluoZin2; at 10 µM; stronger effect = higher value; submaximal glutamate (EC20) added with thallium.
Chain of UniProt P70579 (P70579 whole entry, looked up): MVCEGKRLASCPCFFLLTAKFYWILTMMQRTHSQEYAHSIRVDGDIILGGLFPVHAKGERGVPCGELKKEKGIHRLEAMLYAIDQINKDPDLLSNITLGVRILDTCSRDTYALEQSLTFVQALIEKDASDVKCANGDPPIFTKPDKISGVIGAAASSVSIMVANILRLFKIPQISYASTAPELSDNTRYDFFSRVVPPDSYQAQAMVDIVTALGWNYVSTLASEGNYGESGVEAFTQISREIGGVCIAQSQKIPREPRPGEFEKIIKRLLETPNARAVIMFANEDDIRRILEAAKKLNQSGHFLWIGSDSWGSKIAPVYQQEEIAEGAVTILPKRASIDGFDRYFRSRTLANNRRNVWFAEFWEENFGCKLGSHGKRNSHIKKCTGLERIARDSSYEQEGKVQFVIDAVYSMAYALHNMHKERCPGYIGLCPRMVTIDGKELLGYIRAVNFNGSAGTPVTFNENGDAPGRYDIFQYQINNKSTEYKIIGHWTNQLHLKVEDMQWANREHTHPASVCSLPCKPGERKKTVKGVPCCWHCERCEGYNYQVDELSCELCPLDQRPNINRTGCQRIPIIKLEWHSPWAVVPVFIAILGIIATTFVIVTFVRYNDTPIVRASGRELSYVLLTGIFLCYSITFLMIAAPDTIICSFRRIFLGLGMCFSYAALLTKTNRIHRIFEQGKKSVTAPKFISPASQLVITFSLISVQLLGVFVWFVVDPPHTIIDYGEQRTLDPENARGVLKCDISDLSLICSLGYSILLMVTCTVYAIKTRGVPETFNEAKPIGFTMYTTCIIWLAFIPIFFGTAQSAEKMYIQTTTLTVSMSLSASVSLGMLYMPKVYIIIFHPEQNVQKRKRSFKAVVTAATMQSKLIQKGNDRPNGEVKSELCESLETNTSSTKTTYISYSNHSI
Turning to `Cc1cc(C)c(C#N)c(SCCS(=O)(=O)Cc2ccc(Cl)cc2)n1`, the z-score came out at 0.179.

On to `COC(=O)CNC(=O)CNC(=O)Nc1ccccc1` ({NHPh-CO}-Gly-Gly-OMe), for which the z-score is -0.494. The figure for `CCCc1noc2c1/C(=N\O)CC(c1ccccc1)C2` (centres undefined) is -0.153; for `CCc1cc(=O)oc2cc(OCC(=O)O)c(Cl)cc12` it is 0.51. The figure for `CCN=C1SC(C(=O)Nc2cccc(C)c2)CC(=O)N1CC` (centres undefined) is -0.145; for `COc1ccc(C2C(C#N)=C(N)Oc3n[nH]c(C)c32)cc1Cn1cc([N+](=O)[O-])cn1` (centres undefined) it is -2.25; for `Cc1cc(O)c(C=Nc2ccc(Cl)cn2)c(=O)o1` it is -0.0105. The result for `COc1ccc(NCC(=O)N/N=C/c2ccc3c(c2)OCCO3)cc1` reads -0.0641.

`Cc1noc(C)c1S(=O)(=O)N1CCC(C(=O)Nc2ccc(OC(F)(F)F)cc2)CC1` yielded a z-score of 0.264. The result for `Cc1sc2ncnc(NCC3(N4CCOCC4)CCCCC3)c2c1C` reads -0.201; that for `CN(C(=O)/C(N=Nc1cccc(C(F)(F)F)c1)=C(\O)C(F)(F)F)c1ccccc1`, -0.183; that for `NC(=O)N1CC(O)CC1C(=O)Nc1ccc(Cl)c(Cl)c1` (centres undefined), -0.279.

Turning to `Cc1ccc(NCc2nc3ccccc3n2CCOc2ccccc2)cc1`, the z-score is -0.0597. The figure for `CC(=O)NS(=O)(=O)c1ccc(NC(=S)NC(=O)c2ccco2)cc1` is -0.0158. The figure for `CCc1nc(SCC(=O)N2CCC(C)CC2)c2c(=O)n(C)c(=O)n(C)c2n1` is -0.364. With `Clc1ccc(-c2nnc(NC3=NCCCCC3)o2)cc1`, the z-score came to 0.0658. The figure for `O=C(COc1ccccc1-c1ccccc1)Nc1ccc(S(=O)(=O)NCc2ccco2)cc1` is -0.157; for `C=CCN1C(=O)C2(/C(=C(\O)c3ccc4c(c3)OCCO4)C(=O)C(=O)N2CCCOC)c2ccccc21` (centres undefined) it is 0.102; for `Cc1ccc(C(=O)NNC(=S)NC(=O)c2ccc(Cl)cc2)cc1` it is active: 7.64. The figure for `CCOc1cc(C2/C(=C(/O)c3ccc(OC(C)C)cc3)C(=O)C(=O)N2CCCOC)ccc1O` (centres undefined) is 0.645; for `CCOC(=O)c1c(O)c2c([nH]c1=O)CCCC2` it is -0.146; for `O=C(Cn1nnc2ccccc2c1=O)N[C@@H](Cc1c[nH]c2ccccc12)C(=O)O` it is -0.161. The figure for `Cc1cccc(-n2c(O)c(/C=N/NC(=O)c3ccccc3Cl)c3ccccc3c2=O)n1` is active: 5.65; for `O=C(CCCCCn1c(=S)[nH]c2ccc(N3CCOCC3)cc2c1=O)NCCc1ccccc1` it is 0.0267; for `O=C(CNC(=O)c1ccccc1)N/N=C/c1ccc([N+](=O)[O-])o1` it is -0.0138. In the case of `Cc1c(NC(=O)CSc2nc(-c3ccco3)cc(C(F)(F)F)n2)c(=O)n(-c2ccccc2)n1C`, the z-score was -0.129. The result for `COc1cc(S(=O)(=O)N2CCC(c3nc4ccccc4s3)CC2)ccc1S(=O)(=O)N1CC(C)CC(C)C1` (centres undefined) reads 0.205. The result for `CCOc1ccc(-n2cc(C(=O)Nc3ccc(Cl)cn3)c3cc(OC)c(OC)cc3c2=O)cc1` reads -0.721; that for `CC(C)C1C(c2ccccc2)N(C)C(c2ccccc2)CC1(O)c1ccccc1` (centres undefined), 1.25; that for `Cc1ccc(/C=C/C(=O)c2cc(Br)ccc2OC(=O)c2ccco2)cc1`, -0.117. The figure for `CN(Cc1ccccc1)c1nc(-c2ccc([N+](=O)[O-])cc2)nc2ccccc12` is -0.394; for `Cc1cc(C)nc(NC(=O)NS(=O)(=O)N2CCCCCC2)n1` it is 0.0342. In turn, `Oc1ccc(-c2[nH]nc(-c3ccccc3)c2-c2nc3ccccc3[nH]2)cc1` returned a z-score of -0.109. For the compound `Cc1ccc(S(=O)(=O)CCC(=O)OCc2ccc(Cl)cc2)cc1`, the z-score is -0.694. The figure for `Cc1nnc(SCC(=O)N/N=C/c2cc(Cl)c(O)c(Cl)c2)s1` is -0.388; for `CCCCNC(=S)Nc1ccc(-c2nc3ccc(C)cc3s2)cc1` it is -0.126; for `CN(C)c1cccc(C(=O)NNC(=O)NC2CCCCC2)c1` it is -0.554. Turning to `NC(=S)N=Nc1c(O)[nH]c2cc(F)c(F)cc12`, the z-score was determined as 1.16.

In the case of `CC1CC(C)CN(CCCNC(=O)Cn2ncc3c(=O)oc4ccccc4c32)C1` (centres undefined), the z-score was -0.462. The result for `CN(C)CC(C)(C)CNS(=O)(=O)CC12CCC(CC1=O)C2(C)C` (centres undefined) reads 0.137. The result for `CCCc1nc2oc3c(NCCN(C)C)ncnc3c2c2c1CCCC2` reads 0.466; that for `Cc1c(Cl)cccc1NC(=O)Nc1ccn(C)n1`, -0.296. `O=C(c1ccc(C#CC2(O)CCCCC2)cc1)N1CCN(Cc2ccccc2)CC1` returned a z-score of -0.528.

In turn, `CN(C)c1ccc(NC(=O)COC(=O)Cn2nnc3ccccc32)cc1` gave a z-score of 0.25.

`COC(=O)c1cc(=O)cc(C(=O)OC)o1` came in with a z-score of 0.0127. `Cc1cccc2sc(NC(=O)C3CCCO3)nc12` (centres undefined) gave a z-score of -0.212. The result for `FC(F)(F)c1ccc(/C=N/N2CCN(Cc3cccc4ccccc34)CC2)cc1` reads 0.0424. The figure for `Cc1cc(C)n(Cc2ccc(Cl)cc2Cl)c(=O)c1S(=O)(=O)c1ccccc1` is -0.558. The figure for `O=C(NC(Cc1ccccc1)C(=O)N1CCN(c2ccccn2)CC1)c1ccco1` (centres undefined) is -0.0668; for `O=C(Nc1ccccc1)c1cc([N+](=O)[O-])ccc1NCc1cccnc1` it is -0.426; for `CCOc1ccc(C2NC(=O)C(C#N)=C(S)N2c2ccc(C)cc2)cc1OC` (centres undefined) it is -0.229. Regarding `CCC(C)C(NC(=O)C(C)NC(=O)CNC(=O)CNC(=O)OCc1ccccc1)C(=O)OC` (centres undefined) (Cbz-GGAI-OMe; configuration not given here), the z-score was determined as 0.481. The result for `O=C(COc1ccc(Br)cc1CO)Nc1ccccc1` reads -0.336. The figure for `Cc1cccc(NC(=S)NC(=O)C(c2ccccc2)c2ccccc2)n1` is 0.232; for `COc1cc2c(cc1NC(=O)/C=C/c1cc(OC)c(OC)c(OC)c1)oc1ccccc12` it is -0.103. For `Cc1cc(OCC(=O)C(C)(C)C)c2c(C)c(C)c(=O)oc2c1`, the z-score is -0.653. As to `CCSc1nnc(NC(=O)c2cccc3ccccc23)s1`, the z-score was -0.316.

`CC(=O)Oc1ccc2c(=O)c(Oc3ccccc3)c(C)oc2c1OC(C)=O` displayed a z-score of -0.711. The result for `COc1ccccc1NS(=O)(=O)c1ccc(NC(C)=O)cc1` reads -0.372.

Take `O=C(c1ccc(Cl)c(S(=O)(=O)NCc2ccco2)c1)N1CCN(c2ccc(F)cc2)CC1`: the z-score is -0.13. The result for `O=C(Cc1cccs1)N1CCN(S(=O)(=O)c2ccccc2)CC1` reads -0.183; that for `C=CCn1c(SCC(=O)NC2CCCc3ccccc32)nnc1-c1ccncc1` (centres undefined), -0.128; that for `CCOC(=O)C1C(=O)NC(N2CCN(Cc3ccccc3)CC2)=NC1c1ccccc1` (centres undefined), -0.912.

Compound `CCc1cc2ccc(C)cc2nc1SCC(=O)c1ccc(NC(C)=O)cc1` displayed a z-score of -0.122. The result for `CCOC(=O)CON1C(=O)c2ccccc2C1=O` reads 0.204. The result for `O=C(Nc1nc(C2C3CC4CC(C3)CC2C4)cs1)c1cc2cc([N+](=O)[O-])ccc2oc1=O` (centres undefined) reads -0.372.

As to `CC(=O)OCC(=O)N1CCN(c2ccc([N+](=O)[O-])cc2)CC1`, the z-score came out at 0.0825. The result for `CN(CC(=O)NC(=O)NCc1ccccc1)Cc1ccc(Cl)cc1` reads -0.334. The result for `CCC(=O)NC(Nc1sc2c(c1C(=O)OC)CCC2)C(Cl)(Cl)Cl` (centres undefined) reads -0.602; that for `COc1ccc(/C=N/NC(=O)c2ccc(COc3ccccc3Cl)o2)c(OC)c1C`, -0.172. The result for `Cc1ccc(N(C(=O)CNC(=O)c2ccco2)C(C(=O)NC2CCCC2)c2cccnc2)cc1C` (centres undefined) reads -0.146. For the compound `Cc1ccccc1-n1nc2c(c1NC(=O)c1cc3ccccc3oc1=O)CS(=O)C2` (centres undefined), the z-score is -1.54.

In the case of `CCCC(=O)Nc1ccccc1-c1nnc(SC)[nH]c1=O`, the z-score is 0.00221. The figure for `O=C(N/N=C\c1cn[nH]c1-c1ccccc1)c1cccnc1` is 0.0508; for `Cc1c(Cl)c([N+](=O)[O-])nn1CCCC(=O)Nc1cccc(Cl)c1Cl` it is -0.213.

Consider `O=C(Nc1cc(C(F)(F)F)ccc1N1CCCCC1)c1ccco1`, for which the z-score was -0.156. The result for `Cc1ccc(-c2cc(C(F)F)n3ncc(C(=O)N4CCCc5ccccc54)c3n2)cc1` reads -0.0629. The result for `O=C(NCC1CCCO1)C(=O)NCC(c1ccco1)N1CCN(c2ccccc2F)CC1` (centres undefined) reads -0.438. The figure for `Cc1ccc2c(c1)C(C)CC(C)(C)N2C(=O)NC1CCCCC1` (centres undefined) is -0.123; for `O=C(Nc1ccccc1Cl)N1CCN(c2ccc3nnc(-c4ccc(F)cc4)n3n2)CC1` it is -0.852; for `O=C(Cn1nc(-c2ccc(Cl)cc2)c2ccccc2c1=O)Nc1cccnc1` it is -0.258. With `O=C(CN(C(=O)Cn1nnc(-c2ccccc2F)n1)c1cccc2c1CCCC2)NCc1ccccc1`, the z-score was -0.366.

Take `O=C1CCCc2c1cc(C(=O)NCCCN1CCOCC1)c(=O)n2-c1ccc(Cl)cc1`: the z-score worked out at 0.187. The result for `N#Cc1ccc(Oc2ccc(-c3cnc4ccccc4n3)cc2)cc1C#N` reads -0.166. For `Cc1ccc(C)c(NC(=S)N2CCC(N(C)CC3CCCO3)CC2)c1` (centres undefined), the z-score turned out to be 0.13. The figure for `CCOC(=O)CC(=O)CSc1nnc(Cn2c(=O)sc3ccccc32)n1C` is -0.362; for `O=C(Nc1nnc(-c2ccc(Cl)cc2)o1)NC1CCCCC1` it is -0.0226. The figure for `CCc1ccc(OCC(=O)NC(NC(=S)Nc2ccc(Cl)cc2)C(Cl)(Cl)Cl)cc1` (centres undefined) is -0.109; for `Cc1cc(C)c2c(-n3cccc3)c(C(=O)NNS(=O)(=O)c3ccc(Cl)cc3)sc2n1` it is 0.188; for `CCOC(=O)C1CCCN(C(=O)c2ccco2)C1` (centres undefined) it is 0.661. `COc1cccc2c(SCC(=O)N/N=C/c3ccccc3)cc(C)nc12` displayed a z-score of 0.139. As for `C=CCc1ccc(OCCOCCOc2ccc(C)cc2[N+](=O)[O-])c(OC)c1`, the z-score was -0.342.

Compound `O=C(NCC(=O)N1CCN(c2ncccn2)CC1)c1cccs1` returned a z-score of 0.235. The figure for `O=C(N/N=C/c1ccc(F)cc1)c1sccc1OCc1ccc(F)cc1` is -0.218; for `CC(C)c1ccc(OCC(=O)Nc2cccc3c2CCCC3)cc1` it is -0.403. The result for `CCOC(=O)C1C2C=CC3(CN(c4ccccc4CC)C(=O)C13)O2` (centres undefined) reads 0.141; that for `CCSc1nnc(NC(=O)CSc2nc(C)cc(C)n2)s1`, -0.0284.

Turning to `Cc1cc(C(=O)O)ccc1N/C=C1\CCCC(C)C1=O` (centres undefined), the z-score was determined as 0.167.

On to `CCCCc1[nH]c(=O)c(C#N)c2c1CSC(C)(C)C2`, for which the z-score is -0.556. The figure for `CC1=CC2=NC(=O)/C(=C\c3cc(C)n(-c4cccc(Cl)c4)c3C)C(=N)N2O1` is -0.016.

The compound `CC(=O)n1c(Cl)c(NC(=O)CCl)c2ccccc21` came in with a z-score of 0.0906. Regarding `CCCOc1ccc(N2C(=O)CC(N3CCN(c4ccccc4OC)CC3)C2=O)cc1` (centres undefined), the z-score is -0.446.

As to `Cc1cccc2c1N(CC(=O)OC(C)C)C(=O)C2=O`, the z-score is -0.0885. The result for `COc1ccc(-c2nc(C#N)c(N3CCC(C(N)=O)CC3)o2)cc1OC` reads 0.0333.
